In the supplement of paper PMC8728848:
About 410 targets per protein were measured; listed, in parts, are those with the strongest signals and a random draw of the rest.

System: Gal(a1-4)GlcNAc
Experiment: glycan array binding signal (z-score within array); higher = stronger binding
Conditions: glycan notation: IUPAC condensed, linker removed
Procedure, shortened: (§1)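 The binding signal is a Z-score computed within each array. Data were drawn from 3228 arrays in the Consortium for Functional Glycomics database, restricted to those with a known protein sequence. Scores were averaged over arrays of the same protein sequence at different concentrations or buffers, and over linkers, and negative values can be taken as non-binding.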

**Q.** “L-Ficolin (Homo sapiens) (chain not printed)” was tested. Which “glycan array binding signal (z-score)” value did it give?
**A.** The value was 0.182.

**Q.** With “H-Ficolin (Homo sapiens) (chain not printed)” as the substance, how does the “glycan array binding signal (z-score)” value read?
**A.** Its value is 0.078.

**Q.** With “Galectin-8 C-terminal CRD (Homo sapiens) (chain not printed)” as the substance, how does the “glycan array binding signal (z-score)” value read?
**A.** The value was -0.333.

**Q.** How did the “glycan array binding signal (z-score)” value turn out when “M-Ficolin Y271F (Homo sapiens) (chain not printed)” was run?
**A.** Its value is -0.275.

**Q.** Which “glycan array binding signal (z-score)” value does the source give for VWF (Homo sapiens) (chain not printed) here?
**A.** Its value is 0.253.

**Q.** With “M-Ficolin A256V (Homo sapiens) (chain not printed)” as the substance, how does the “glycan array binding signal (z-score)” value read?
**A.** Its value is -0.159.

System: Gal(a1-6)Glc
Experiment: as above
Conditions: glycan notation: IUPAC condensed, linker removed
Procedure, shortened: as §1

**Q.** Which “glycan array binding signal (z-score)” value does the source give for “M-Ficolin G221F A256V (Homo sapiens) (chain not printed)” here?
**A.** The value was -0.242.

**Q.** “Collectin K1 (Homo sapiens) (chain not printed)” was tested. Which “glycan array binding signal (z-score)” value did it give?
**A.** Its value is -0.244.

**Q.** How did the “glycan array binding signal (z-score)” value turn out when “CLEC-2 (Homo sapiens) (chain not printed)” was run?
**A.** Its value is 0.109.
